This sample is rich in variants without activity.
B1: TPR 5TU (parent)
chain: GGAUCUUCUCGAUCUAACAAAAAAGACAAAUCUGCCACAAAGCUUGAGAGCAUCUUCGGAUGCAGAGGCGGCAGCCUUCGGUGGCGCGAUAGCGCCAACGUUCUCAACUAUGACACGCAAAACGCGUGCUCCGUUGAAUGGAGUUUAUCAUG

Variants of: B1
Assay: polymerase ribozyme fitness, log enrichment relative to wild type (log ratio); higher = more active; in vitro selection for triplet polymerase activity
Outline: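 After PCR construction and transcription, each subunit's mutant library from a heterodimeric triplet polymerase ribozyme was annealed with a biotinylated primer, the partner subunit and triplets. Incubation was frozen, at −7 °C, and extended constructs were gel-excised, bound to streptavidin beads and amplified by RT-PCR, in one selection round done in triplicate. Fitness is the logarithm of a genotype's enrichment divided by that of the wild type, from inverse-variance-weighted replicate averages of Illumina-sequenced inputs and outputs. The base of the logarithm is 2, and genotypes needed ≥10 input reads and ≥1 read per output.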

Polymerase ribozyme fitness (log ratio), -3.64:
GGAUCUUCUCGAUCUAACAAAAUAGACAAAUCUGCCACAAAGCUUGAGAGCAUCUUUGGAUGCAGAGGCGGCAGCCUUCGGUGGCGCGAUAGCGCCAACGUUCUCAACUAUGACACGCAAAACGCGUGCUCCGUUGAAUGGAGUUUAUCAUG [A23U C57U]

Polymerase ribozyme fitness (log ratio), ≤ -4.2:
GGAUCUUCUCGAUCUAACAAAAUAGACAAAUCUGCGACAAAGCUUGAGAGCAUCUUCGGAUGCAGAGGCGGCAGCCUUCGGUGGCGCGAUAACGCCAACGUUCUCAACUAUGACACGUAAAAAGCGUGCUCCGUUGAAUGGAGUUUAUCAUG [A23U C36G G92A C118U C123A]
GGAUCUUCUCGAUCUAACAAAAUAGACAAAUCUGCUACACGGCUUGAGAGCAUCUUCGGAUGCAGAGGCGGCAGCCUUCGGUGGGGCGAUAGCGCCAACGUUCUGAACUAUGACACGCAAAACGCGUGCUCCGUUGAAUAGAGUUUAUCAUG [A23U C36U A40C A41G C85G C105G G140A]
GGAUCUUCUCGAUCUAACAAAAUAGACAAAUCUGCCAAAAAGCUUGAGAGCAUCUUCGGAUGCAGAGGCGGCAGCCUUCGGUGGCGCGAUAGCGCCAACGUUCUCAACUAUGACACGCAAAACGCGUGCUCCGUUGAAUGGAGUUUAUCAUG [A23U C38A]
GGAUCUUCUCGAUCUAACAAAAUAGACAAAUCUGCCAUCAAGCUUGAGAGCAUCUUUGGAUGCAGAGACGGCAGCCUUCGGUGGCGCGAUAGCGCCAACGUUCUCAACUAUGACACGCAACACGCGUGCUCCGUUGAAUGGAGUUUAUCAUG [A23U C38U A39C C57U G68A A121C]
GGAUCUUCUCGAUCUAACAAAAUAGACAAAUCUGCCAUAAAGCUUGAGAGCAUCUUCGGAUGCAGAGGCGGCCGCCUUCGGUGGCGCGAUAGAGCCAACGUUCUCAACUAUGACACGCAAAACGCGUUCUCCGUUGAAUGGAGUUUAUCAUG [A23U C38U A73C C93A G128U]
GGAUCUUCUCGAUCUAACAAAAUAGACAAAUCUGCCAUAAAGCUUGAGAGCAUCUUCGGAUGCAGAGGCGGCAGCCUUCGGUGGCGCGAUAGCGCCAACGUUCUCAACUAUGAUACGCAAAACGCAUGCUCCGUUGAAUGGAGUUUAUCAUG [A23U C38U C114U G126A]
GGAUCUUCUCGAUCUAACAAAAUAGACAAAUCUGCCAUAAAGCUUGAGAGCAGCUACGGUUGCAGAGGCGGCAGCCUUCGGUGGCGCGAUACCGCCAACGUUCUCAACUAUGCCACGCAAAACGCGUGCUCAGUUGAAUGGAGUUUAUCAUG [A23U C38U U53G U56A A60U G92C A113C C132A]
GGAUCUUCUCGAUCUAACAAAAUAGACAAAUCUGCCACAAAGAUUGAGAGCAUCUUCGGAUGCAGAGGGGGCAGCCUUCGGUGGCGCGAUAGCGCCAAGGUUCUCAACUAUGACACGCAAAACGCGUGCUCCGUUGAAAGGAGAUUAUCAUG [A23U C43A C69G C99G U139A U144A]
GGAUCUUCUCGAUCUAACAAAAUAGACAAAUCUGCCACAAAGGUUGAGAGCAUCUUGGGAUGCAGAGGCGGCAGCCUUCGGUGGCGCGAUAGCGUCAACGUGCUCAACUAUGACACGCAAAACGCGUGCUCCGUUGAAUGGAGUUAAUCGUG [A23U C43G C57G C95U U102G U146A A150G]
GGAUCUUCUCGAUCUAACAAAAUAGACAAAUCUGCCACAAAGUUUGAGAGCAUCUUCGCGUGCAGAGGCGGCAGCCUUCGGUGGCGCGAUAGCCCCAACGUUCUCAACUAUGACACGCAAAACGCGUGCUCCGUUGAAUGGAGUUUAUCAUG [A23U C43U G59C A60G G94C]
GGAUCUUCUCGAUCUAACAAAAUAGACAAAUCUGCCACAAAGCUUGAGAGAAUCUUCGGAUGCAGAGGCGGCAGCCUUCGGUAGCGCGAUAGCGCCAACGUUCUCAACUAUGACACGCAAAACGCGUGCUCCGUUGAAUGGAGUUGAUCAUG [A23U C51A G83A U146G]
GGAUCUUCUCGAUCUAACAAAAUAGACAAAUCUGCCACAAAGCUUGAGAGUAUCUUCGGAUGCAGAGGCGGCAGCCGUCGGUGGCGCGAUAGCGCCAACGUUCUCAACUAUGACACGCAAAACGCGUGCUCCGUUUAAUGGAGUUUAUCAUG [A23U C51U U77G G136U]
GGAUCUUCUCGAUCUAACAAAAUAGACAAAUCUGCCACAAAGCUUGAGAGCAUCUUAGGAUGCAGGGGCGGCAGCCUUCGGUGGCGCGAUAGCGCCAACGUUCUCAUCUAUGACACGCAAAACGCGUGCUCCGUUGAGUGGAGUUCAUCAUG [A23U C57A A66G A107U A138G U146C]
GGAUCUUCUCGAUCUAACAAAAUAGACAAAUCUGCCACAAAGCUUGAGAGCAUCUUAGGAUGCAGAGGCGGCAGCCUUCGGUGGGGCGGUAGCGCCAACGUUCUCAACUAUGACACGCAGAACGCGGGCUCCGUUGAAUGGAGUUUAUCAUG [A23U C57A C85G A89G A120G U127G]
GGAUCUUCUCGAUCUAACAAAAUAGACAAAUCUGCCACAAAGCUUGAGAGCAUCUUAGGAUGCAGAGGCGGCAGCCUUCGGUGGCGCGAUAGCGCCAAGGUUCUCAACUAUGACUCGCAAAAAGCGUGCUCAGUUGAAUGGAGUUUAUCAUG [A23U C57A C99G A115U C123A C132A]
GGAUCUUCUCGAUCUAACAAAAUAGACAAAUCUGCCACAAAGCUUGAGAGCAUCUUGGGAUGCAGAGGCGGCUGCCUUCGGUGGCGCGAUAGCGCCAUCGUUCUCAACUAUGACACGCAAAACGCGUGCUCCGUUGAAUGGAGUUUAUCAUG [A23U C57G A73U A98U]
GGAUCUUCUCGAUCUAACAAAAUAGACAAAUCUGCCACAAAGCUUGAGAGCAUCUUCGGAUGCAGAGGCGGUAGCCUUCGGUAGCGCGAUAGCGCCAACGUUCUCAACAAUGACACGCAAAACGCGUGCUCCGUUGAAUGGAGUUUAUCAGG [A23U C72U G83A U109A U151G]
GGAUCUUCUCGAUCUAACAAAAUAGACAAAUCUGCCACAAAGCUUGAGAGCAUCUUCGGAUGCAGAGGCGGCAGGCUUCGGUGGCGCGAUAGCGCGAACGUUCUCAGCUAUGACAUGCAAAACGCGUGCUCCGUUGAAUGGAGUUUAUCAUG [A23U C75G C96G A107G C116U]

— the RNAGym collection of RNA variant scans (doi:10.1073/pnas.2313332121)
